# Results taken from publication PMC4336329 (PLoS ONE, 2015).
# Screen size: about 310,000 compounds; about 2,200 (0.71%) showed an effect of 50% or more. The effect is printed as a negative number. Some of the results follow.
# Target: human ether-à-go-go-related gene (hERG) potassium channel (human, UniProt Q12809)
# Assay: primary screen, population patch clamp on CHO cells stably expressing hERG
# human ether-à-go-go-related gene (hERG) potassium channel, sequence (Q12809 whole entry, looked up): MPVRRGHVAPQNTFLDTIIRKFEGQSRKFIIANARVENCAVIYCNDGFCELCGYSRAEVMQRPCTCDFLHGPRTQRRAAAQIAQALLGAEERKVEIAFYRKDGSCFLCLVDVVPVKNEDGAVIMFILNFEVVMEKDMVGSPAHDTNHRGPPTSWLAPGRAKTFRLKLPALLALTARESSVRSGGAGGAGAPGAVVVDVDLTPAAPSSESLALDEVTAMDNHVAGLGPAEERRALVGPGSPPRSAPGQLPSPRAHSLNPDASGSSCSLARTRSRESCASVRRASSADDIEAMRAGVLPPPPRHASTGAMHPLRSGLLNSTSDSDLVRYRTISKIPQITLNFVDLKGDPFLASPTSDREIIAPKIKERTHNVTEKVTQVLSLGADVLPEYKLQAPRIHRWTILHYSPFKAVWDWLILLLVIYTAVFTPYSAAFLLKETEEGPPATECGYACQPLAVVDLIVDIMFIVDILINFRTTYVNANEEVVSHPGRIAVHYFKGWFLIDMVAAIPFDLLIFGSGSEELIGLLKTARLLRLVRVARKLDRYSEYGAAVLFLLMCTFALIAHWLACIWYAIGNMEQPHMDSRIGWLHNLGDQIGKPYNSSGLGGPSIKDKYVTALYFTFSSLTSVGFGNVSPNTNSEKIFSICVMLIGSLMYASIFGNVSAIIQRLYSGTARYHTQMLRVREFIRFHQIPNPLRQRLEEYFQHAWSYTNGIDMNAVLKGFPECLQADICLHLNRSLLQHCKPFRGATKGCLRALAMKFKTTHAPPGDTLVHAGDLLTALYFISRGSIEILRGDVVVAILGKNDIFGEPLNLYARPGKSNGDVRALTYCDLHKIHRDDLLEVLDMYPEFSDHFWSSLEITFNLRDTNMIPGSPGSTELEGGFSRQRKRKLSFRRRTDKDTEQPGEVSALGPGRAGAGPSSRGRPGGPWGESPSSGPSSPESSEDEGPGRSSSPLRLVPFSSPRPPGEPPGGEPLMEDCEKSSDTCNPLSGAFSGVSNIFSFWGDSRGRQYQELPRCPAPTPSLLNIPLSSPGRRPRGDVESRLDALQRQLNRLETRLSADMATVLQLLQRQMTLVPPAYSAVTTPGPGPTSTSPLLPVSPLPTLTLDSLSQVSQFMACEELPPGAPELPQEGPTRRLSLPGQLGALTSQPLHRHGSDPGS
row,SMILES,"hERG current change (%, negative = inhibition) at 1uM [%]"
1,CCOC(=O)C1CCCN(Cc2ccccc2F)C1 (stereo not drawn),-9.07
2,O=c1[nH]c(/C=C/c2cccc(Br)c2)nc2ccccc12,11.8
3,Fc1cc(Cl)ccc1NC(=S)NCCN1CCOCC1,14.2
4,CCOc1ccc(S(=O)(=O)N(C)c2ccc(OCC(=O)OCc3c(C)noc3C)cc2)cc1,11.2
5,COc1ccc(C(CC(=O)NC(C)c2ccc(-c3ccccc3)cc2)NC(C)=O)cc1 (stereo not drawn),0.383
6,CC1(C)Cc2c(c(-c3ccccc3Cl)[nH]c(=O)c2C#N)CO1,12.7
7,O=C1CC(N2CCC(Cc3ccccc3)CC2)C(=O)N1CCc1ccccc1 (stereo not drawn),20
8,COc1ccccc1N1CCN(C(=O)c2ccccc2Oc2ccccc2)CC1,2.38
9,C=CCn1c(CNC(=O)c2ccco2)nnc1SCC(=O)N1c2ccccc2Sc2ccccc21,15.3
10,N#C/C(=C/c1ccc(N2CCOCC2)o1)c1ccc(Br)cc1,12.4
11,Cc1nnc2ccc(-c3cccc(NC(=O)c4ccc(Br)o4)c3)nn12,-52.2
12,CCC(C)[C@H](NC(=O)c1cn(CC)c2cc3c(cc2c1=O)OCO3)C(=O)NCCCn1ccnc1 (stereo partly drawn),25.9
13,NC(=O)c1ccccc1NC(=O)CN1CCCCCC1,13.4
14,FC(F)Oc1ccc(NC(=S)N2CCc3ccccc32)cc1,7.88
15,CCOc1cc(/C=C2/NC(=O)N(CC(=O)Nc3cccc(C)c3)C2=O)ccc1OC,6.96
16,CCOC(=O)Cc1c(C)nc2c(C#N)c[nH]n2c1=O,2.42
17,Cc1nc(-c2ccc(S(=O)(=O)Nc3ccc(Br)cc3F)cc2)co1,10.2
18,COc1ccc(C(C)=O)cc1CSc1nncn1C,11.1
19,COCCNC(=O)c1cc2cc3ccc(OC)cc3nc2o1,13.9
20,CC1CCN(C(=O)CSc2nc3ccccc3s2)CC1,-0.175
21,Cl.N[C@@H](CO)c1nnc([C@H](CC(=O)O)NC(=O)C2CCNCC2)o1,16.1
22,C[C@@]12CC(=O)NC1N(C(=O)c1ccccc1)C(c1ccccc1OC(=O)c1ccccc1)C2 (stereo partly drawn),4.04
23,CN1C(=O)/C(=C\c2ccccc2F)Sc2ccc(C(=O)NC3CCN(Cc4ccccc4)CC3)cc21,3.18

row,SMILES,"hERG current change (%, negative = inhibition) at 1uM [%]"
1,CCOC(=O)c1sc(NC(=O)CSc2n[nH]c(CC)n2)nc1C,14.2
2,CCN(CC)CCCOC(=O)c1ccc(OC)cc1O.Cl,-4.18
3,CC(=O)N1N=C(c2ccccc2OC(=O)/C=C/c2ccccc2)CC1c1ccccc1 (stereo not drawn),12.2
4,COc1ccc2cc(Br)ccc2c1CC(=O)N1CCCC1,10.4
5,NS(=O)(=O)c1cc2c(cc1Cl)NC=NS2(=O)=O,1.8
6,COc1ccc2c(c1)c(=O)oc1cc(OC(C(=O)O)c3ccccc3)ccc12 (stereo not drawn),20
7,O=C(Cn1c2[n+](c3ccc(C(F)(F)F)cc31)CCCCC2)c1cccc([N+](=O)[O-])c1.[Br-],1.37
8,O=C(O)CCCc1nc2ccccc2s1,10.8
9,O=[N+]([O-])c1ccc(/C=N/Nc2ncc(Br)cn2)cc1,7.23
10,CN(CC(=O)Nc1ccccc1Cl)C(=O)COC(=O)c1ccc(Cl)nc1,12.6
11,CC1CCCCC1NC(=S)NC(=O)c1cccs1 (stereo not drawn),15.7
12,COc1ccc(S(=O)(=O)N2CCSC2)cc1C,5.16
13,Cn1c(SCC(=O)NCc2ccccc2)nc2ccccc21,20.4
14,CN1CCN(c2ccc(NC(=O)COc3ccc4ccccc4c3)cc2)CC1,3.13
15,COc1cccc(-c2nn3c(-c4ccccn4)nnc3s2)c1,-8.72
16,O=C(CCC1CCCC1)N1CCC(N2CCCCCC2)CC1.O=C(O)C(=O)O,-10.1
17,O=C(CCCN1C(=O)CCC1=O)Nc1ccc2c(c1)OCO2,15.4
18,CN(C)S(=O)(=O)c1ccc(N2CCCC2)c(C(=O)Nc2ccc(N3CCOCC3)cc2)c1,0.967
19,Cn1nnc(NC(=O)CSc2ncn[nH]2)n1,3.74
20,O=C(NCc1nnc(SCC(=O)N2CCCCC2)o1)c1c(F)cccc1F,6.45
21,CC1CCC(C(=O)NC(C(=O)N2CCN(c3ccccn3)CC2)C(C)C)CC1 (stereo not drawn),8.21
22,Nc1nc2c(Cl)ccc(Cl)c2s1,13.5
